# Data reported in PubChem BioAssay AID720709 (National Center for Advancing Translational Sciences (NCATS), 2013).
# Out of some 360,000 compounds screened, about 520 (0.14%) were called active. This list was built around the results that the source calls inconclusive (neither active nor inactive); the mix of calls is not that of the screen. Calls come from the whole dose curve; as a rule, active = well fitted inhibition curve with a large enough effect; inconclusive = small, poorly fitted or top-dose-only effect; inactive = no such curve, though single readings can be large or run the other way. No potency is given beside an inconclusive call; the fits are too rough.
# Target: Rap guanine nucleotide exchange factor 3 (Homo sapiens) (UniProt O95398)
# Assay: qHTS for Antagonist of cAMP-regulated guanine nucleotide exchange factor 3 (EPAC1): primary screen; note: nearly all actives have a fitted effect of over 50% in size;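 for activity change, negative = inhibition: plate controls were vehicle for no effect and positive control for full effect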
# Details: EPAC1 GEF assay, Rap1b-BODIPY-GDP exchange fluorescence; activity change, negative = inhibition: at 115 µM (top of the series)
# Potency is the fitted concentration of half-maximal effect; tags give direction and shape of the fitted curve.
# UniProt O95398, sequence (O95398 whole entry, looked up): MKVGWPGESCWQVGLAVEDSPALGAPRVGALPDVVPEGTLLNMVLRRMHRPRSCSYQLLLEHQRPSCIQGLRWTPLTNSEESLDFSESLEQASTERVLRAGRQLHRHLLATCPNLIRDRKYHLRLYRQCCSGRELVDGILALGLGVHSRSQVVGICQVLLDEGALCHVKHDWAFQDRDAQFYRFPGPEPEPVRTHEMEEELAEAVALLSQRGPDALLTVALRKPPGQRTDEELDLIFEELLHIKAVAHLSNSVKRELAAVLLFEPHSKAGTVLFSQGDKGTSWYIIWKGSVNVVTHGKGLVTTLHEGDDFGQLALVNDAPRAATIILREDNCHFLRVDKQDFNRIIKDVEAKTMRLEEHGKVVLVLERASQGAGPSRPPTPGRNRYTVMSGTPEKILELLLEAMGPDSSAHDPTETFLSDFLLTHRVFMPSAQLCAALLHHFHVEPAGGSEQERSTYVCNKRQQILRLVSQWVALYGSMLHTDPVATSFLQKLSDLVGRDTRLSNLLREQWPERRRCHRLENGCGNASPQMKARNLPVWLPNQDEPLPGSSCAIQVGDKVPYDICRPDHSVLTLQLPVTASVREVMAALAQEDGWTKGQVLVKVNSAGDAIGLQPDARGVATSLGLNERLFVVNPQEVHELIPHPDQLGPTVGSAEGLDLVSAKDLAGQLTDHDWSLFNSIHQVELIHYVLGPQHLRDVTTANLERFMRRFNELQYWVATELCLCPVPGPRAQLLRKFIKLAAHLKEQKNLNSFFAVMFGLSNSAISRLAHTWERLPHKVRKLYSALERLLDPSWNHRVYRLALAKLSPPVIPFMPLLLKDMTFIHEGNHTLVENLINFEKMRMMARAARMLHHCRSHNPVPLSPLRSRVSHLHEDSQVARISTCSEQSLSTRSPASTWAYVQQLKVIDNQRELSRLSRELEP
Structure (SMILES),Potency,"activity change, negative = inhibition"
C[C@]12CC[C@@H]3c4cc(O)c(O)cc4CC[C@H]3[C@@H]1CC[C@@H]2O,inactive,
CCOC(=O)/C(C#N)=C\C=C1C=CN(C)C=C1,inactive,
COc1ccc(S(=O)(=O)Nc2ccc(N3CCOCC3)cc2)cc1Br,"inconclusive [inhibitor, full curve, poor fit]",
CC(C)CN(C(=O)CSc1nncn1C)C1CCS(=O)(=O)C1 (stereo unspecified),"inconclusive [inhibitor, full curve, poor fit]",
C[C@H](CO)N1C[C@H](C)[C@H](CN(C)Cc2cccc(O)c2)OCc2ccccc2-c2c(n(C)c3ccccc23)C1=O,"inconclusive [inhibitor, single point]",
O=C(NNC(=O)c1ccc(Cl)c([N+](=O)[O-])c1)c1ccncc1,"inconclusive [inhibitor, full curve, poor fit]",
c1ccc(-c2nnc3sc(CN4CCC5(CC4)OCCO5)cn23)cc1,"inconclusive [inhibitor, single point]",
COc1ccc(NC(=O)C(c2cc3c(cc2[N+](=O)[O-])OCO3)N(C)c2ccccc2)cc1 (stereo unspecified),"inconclusive [inhibitor, full curve, poor fit]",
CCc1ccc(S(=O)(=O)NC2CC(C)(C)NC(C)(C)C2)cc1,"inconclusive [inhibitor, single point]",
Cc1ccc(NC(=O)[C@@H]2CCCN2S(=O)(=O)c2ccccc2F)cc1,,inconclusive: -31.2% [inhibitor]
COc1cc(/C=C2\SC(=S)N(NS(=O)(=O)c3ccccc3)C2=O)cc(OC)c1OC,"inconclusive [inhibitor, full curve]",
COc1cccc(NC(=O)CNC(=O)Cn2cnc3sc(C)c(C)c3c2=O)c1,"inconclusive [inhibitor, full curve, poor fit]",
COc1ccc(S(=O)(=O)N2CCc3cc(OC)c(OC)cc3C2)cc1,"inconclusive [inhibitor, single point]",
O=C(Nc1ccc2nn(-c3ccccc3)nc2c1)c1cccs1,inactive,
Cc1ccc(C(=O)NCCCNC(=O)c2ccc(Cl)cc2)cn1,"inconclusive [inhibitor, single point]",
CC(C)(C)NCC(O)COc1ccccc1C(C)(C)C (stereo unspecified),inactive,
O=S(=O)(c1ccc2nc(-c3ccco3)c(-c3ccco3)nc2c1)N1CCOCC1,"inconclusive [inhibitor, single point]",
CN(C)/N=C1\CCS(=O)(=O)c2sccc21,"inconclusive [inhibitor, full curve, poor fit]",
CCCOc1ccccc1C1CC(=O)NC(C)=C1C(=O)OCC(C)C (stereo unspecified),"inconclusive [inhibitor, single point]",
COc1ccccc1CNC(=O)CCCn1nc(C)n2ccnc2c1=O,"inconclusive [inhibitor, single point]",
O=C(NCC1CCCN(C(=O)NCc2ccccc2)C1)c1ccc2c(c1)OCO2 (stereo unspecified),"inconclusive [inhibitor, single point]",

Structure (SMILES),Potency,"activity change, negative = inhibition"
CN1C(=O)/C(=C/C=C2\SCCN2C)N(C)C1=S,"inconclusive [inhibitor, partial curve]",
CCn1c(-c2nn(-c3ccc(C)cc3)ccc2=O)n[nH]c1=S,inactive,
Cc1ccc(NC(=O)NCC2CC2(Cl)Cl)cc1 (stereo unspecified),"inconclusive [inhibitor, partial curve]",
C#CCOc1ccc(/C=C2/C(=O)N(c3cccc(C(=O)O)c3)N=C2C)cc1OC,"inconclusive [inhibitor, full curve]",
Cc1ccc(NC(=O)CN2C(=O)N/C(=C/c3cccn3-c3ccc(C(=O)O)cc3)C2=O)cc1,"inconclusive [inhibitor, partial curve]",
O=C(c1ccc(Cl)cc1)N1CCN(c2ccnc3cc(Cl)ccc23)CC1,"inconclusive [inhibitor, single point]",
COc1ccc(S(=O)(=O)NCC2CCCN(Cc3ccccc3Cl)C2)cc1 (stereo unspecified),,inconclusive: -4.24% [inhibitor]
O=C(O)CC/C(=N\NC(=O)c1ccc(F)cc1)c1ccc(Br)cc1,"inconclusive [inhibitor, partial curve]",
CN1/C(=C/C=C(C#N)C#N)C(C)(C)c2ccccc21,inactive,
O=C(NCc1ccco1)c1c(F)c(F)c(F)c(C(=O)NCc2ccco2)c1F,"inconclusive [inhibitor, single point]",
CC(C)(C)n1nnnc1C(c1ccccc1)N1CCN(C/C=C/c2ccccc2)CC1 (stereo unspecified),"inconclusive [inhibitor, single point]",
CCc1nnc(NS(=O)(=O)c2ccc(NC(=S)NC(=O)/C=C/c3ccc(OC)cc3)cc2)s1,inactive,
COc1ccccc1C(=O)NC(=S)NNC(=O)c1sc2ccccc2c1Cl,inactive,
O=C1NC(=O)/C(=C\c2ccc(Oc3ccc([N+](=O)[O-])cn3)cc2)S1,"inconclusive [inhibitor, single point]",
COc1cc(/C=C2\SC(=S)N(CCC(=O)N3CCCCC3)C2=O)cc(OC)c1OC,,inconclusive: -31.2% [inhibitor]
O=C(CSc1nc2ccccc2s1)Nc1cc(S(=O)(=O)N2CCOCC2)ccc1O,inactive,
Cc1cc(C)c(C)c(S(=O)(=O)N2CCN(c3ncnc4ccccc34)CC2)c1C,"inconclusive [inhibitor, single point]",
CCn1nc(C)cc1C(=O)N1CCCC(C(=O)c2ccc3ccccc3c2)C1 (stereo unspecified),"inconclusive [inhibitor, single point]",
C#CCOCCOCCOCCNc1nc(N2CCN(C(=O)CCCCCCCCCCNC(=O)[C@H]([C@@H](C)CC)n3cc(CCCCN=C(N)N)nn3)CC2)nc(N2CCN(C(=O)CCCCCCCCCCNC(=O)[C@H](CCCCN)n3cc(C)nn3)CC2)n1,"inconclusive [inhibitor, single point]",
Cc1cc(C)c2cccc(N)c2n1,"inconclusive [inhibitor, partial curve]",
